About 540 (0.36%) of roughly 150,000 compounds showed an effect of 50% or more. This is one part of the list.

The test system of this assay is Plasmodium falciparum. Description: Primary screen in NF54 nanoGlo assay, in single point, at 2uM, 72h; a lower Z score goes with more inhibition. The class given is functional, Erythrocyte. To be noted: timepoint 72 hour.
Take `O=C(NCCN1CCOCC1)c1ccccc1N1C(=O)[C@@H]2Cc3c([nH]c4ccccc34)C(c3ccccc3)N2C1=O` (some centres undefined): the % Inhibition – broadly, the change of the read-out against control, counted positive when it falls – turned out to be 3% and the Z score is on record as -0.35.

For `COc1nc(N(C)C)nc(N(OC)S(=O)(=O)c2ccccc2)n1`, the “% Inhibition” value is listed as 25% and the Z score is listed as -2.79.

With `Cc1c(Cl)cccc1NC(=O)[C@@H]1CCCO1`, the “% Inhibition” value came out at 2% and the Z score is recorded as -0.27.

Consider `CCO[C@H]1CCCN(C(=O)NCc2c(C)cc(C)[nH]c2=O)C1`, for which the “% Inhibition” value is reported as 2% and the Z score is -0.29.

As to `CCCCS(=O)(=O)N1CCCCCC1`, the “% Inhibition” value was -12% and the Z score is given as 1.62.

Consider `Cc1c(C(=O)NCC#C[C@@H]2CCCCO2)c2ccccc2n(C)c1=O`, for which the “% Inhibition” value is on record as -9% and the Z score amounted to 1.69.

For the compound `Cc1c(F)cccc1NC(=O)N(C)[C@@H](C)C1CCN(C)CC1`, the “% Inhibition” value was -5% and the Z score is recorded as 0.88.

As for `Cc1ccc(C(=O)NCC#N)c(O)c1C`, the “% Inhibition” value is -7% and the Z score is reported as 0.64.

For the compound `COc1cccc2c1CCCCN2Cc1nnn(C(C)(C)C)n1`, the “% Inhibition” value is 4% and the Z score was -0.84.

As to `CNc1nc(Nc2ccc3c(c2)OCCO3)nc2ccccc12`, the “% Inhibition” value turned out to be 89% and the Z score is -16.08.

`O=S1(=O)CCC(CNc2ncc(F)cn2)CC1`: the “% Inhibition” value is -6% and the Z score is listed as 0.71.

With `CC(C)c1ncc(CN(C)[C@@H](C)c2cccnc2)cn1`, the “% Inhibition” value is given as -10% and the Z score was determined as 1.36.

On to `Cc1nc(N(C)C)nc(N(C)Cc2ccco2)c1C`, for which the “% Inhibition” value was found to be 5% and the Z score was -0.84.

Consider `COCCN1C(=O)N[C@@](Cc2ccccc2Cl)(C2CCN(C(=O)c3cccnc3C)CC2)C1=O`, for which the “% Inhibition” value is recorded as -9% and the Z score is listed as 1.22.

Consider `Cc1ccn2c(C(=O)NCc3cc(F)ccc3C)nnc2n1`, for which the “% Inhibition” value is given as -17% and the Z score is listed as 3.23.

As for `N#CCN(c1cc(F)cc(F)c1)S(=O)(=O)c1cccn2cnnc12`, the “% Inhibition” value turned out to be 11% and the Z score is listed as -1.34.

Consider `CCn1nc(C(=O)N2CCN(C3CCCCC3)CC2)c2c1CCOC2`, for which the “% Inhibition” value is on record as -7% and the Z score is on record as 0.9.

`COc1cc2c(cc1C(=O)N(C)Cc1nnc3n1CCOCC3)OCO2`: the “% Inhibition” value is recorded as -7% and the Z score was 1.25.

As to `CC(=O)N(C)CCc1noc(-c2cc(-c3ccccc3)no2)n1`, the “% Inhibition” value is on record as -21% and the Z score came to 3.02.

On to `Cn1c(N)c(-c2c(-c3ccc(Cl)s3)[nH]c3c2c(=O)n(C)c(=O)n3C)c(=O)n(C)c1=O`, for which the “% Inhibition” value was 34% and the Z score was -3.88.

As to `O=C([C@@H]1COc2cc(S(=O)(=O)N3CCN(Cc4ccccc4)CC3)ccc2O1)N1CCCCCC1`, the “% Inhibition” value is listed as -25% and the Z score came out at 4.83.

Turning to `C[C@]1(C(=O)NCc2cncc(O)c2)C[C@@H]1c1ccccc1`, the “% Inhibition” value was -2% and the Z score turned out to be 0.31.

For the compound `[O-][n+]1ccc(-c2ccc(Cl)cc2)nc1`, the “% Inhibition” value was -13% and the Z score was found to be 2.44.

As to `COCCCNC(=O)C1CCN(c2c(C)n(-c3ccccc3)c(=O)n(CC(C)C)c2=O)CC1`, the “% Inhibition” value was 31% and the Z score is on record as -0.45.

Turning to `Cc1cc(C)n2cc(CN3CC[C@@H](C(N)=O)c4ccccc43)nc2n1`, the “% Inhibition” value was -1% and the Z score turned out to be 0.14.

In the case of `CC(C)S(=O)(=O)CC(=O)N1CC(n2cc(-c3ccccc3)nn2)C1`, the “% Inhibition” value is given as -10% and the Z score was found to be 1.69.

In the case of `O=C(CCn1cccn1)NCC1CCCC1`, the “% Inhibition” value was 3% and the Z score is reported as -0.43.

Take `CN(C[C@H]1COc2ccccc2O1)C(=O)c1cc2ccccc2[nH]1`: the “% Inhibition” value turned out to be 0% and the Z score was -0.06.

On to `COCC(=O)Nc1ccccc1N(C)C`, for which the “% Inhibition” value is recorded as -8% and the Z score came to 0.8.

`CN(C(=O)c1ccccc1)C1CC2CCC(C1)N2C(=O)Cc1ccoc1` (centres undefined): the “% Inhibition” value is given as 21% and the Z score was -2.69.

For the compound `COc1ccc(-c2ccc(C)c(C(F)(F)F)c2)cc1Cc1nnn[nH]1`, the “% Inhibition” value is -9% and the Z score is reported as 1.78.

As for `CC1CCCC(OCC(=O)NCCc2nncn2C(C)C)C1` (centres undefined), the “% Inhibition” value came to 2% and the Z score is -0.18.

On to `Cn1cnc2cc(C(=O)Nc3nc(-c4ccccc4)cs3)cnc21`, for which the “% Inhibition” value is 23% and the Z score was -3.71.

Consider `O=C(Cc1cccc(O)c1)Nc1ccc2oc(C3CC3)nc2c1`, for which the “% Inhibition” value was -10% and the Z score was 1.33.

On to `NC(=O)C(Cc1ccccc1)NC(=O)C1CC12CCCc1ccccc12` (centres undefined), for which the “% Inhibition” value was -14% and the Z score is 1.93.

For the compound `CCc1csc(NC(=O)N(C)C[C@H](C)C(=O)NC)n1`, the “% Inhibition” value is recorded as 1% and the Z score is -0.17.

For `Clc1ccc2c(c1)C1OCCC1C(c1ccccc1)N2` (centres undefined), the “% Inhibition” value is given as -2% and the Z score stood at 0.43.

As for `Cc1nc(N)ccc1-c1ccc(C(=O)NCCCN2CCC[C@H](O)C2)cc1`, the “% Inhibition” value is 4% and the Z score is given as -0.49.

As for `O=C(c1cccs1)N1CCC(Cc2nnc(-c3ccccc3)o2)CC1`, the “% Inhibition” value is -15% and the Z score turned out to be 2.8.

As for `COc1ccccc1-c1[nH]c2c(c1[C@H]1C(=O)Nc3ccccc31)c(=O)n(C)c(=O)n2C`, the “% Inhibition” value was 8% and the Z score was -0.83.

Take `Cc1nc2c(-c3ccc(Cl)cc3)cnn2c2c1CCC2`: the “% Inhibition” value is -8% and the Z score came to 1.44.

As for `COc1cc(=O)c(C(=O)N2CCCCCC2)nn1-c1ccc(F)c(F)c1`, the “% Inhibition” value came to 36% and the Z score is -1.02.

For the origin of these results see ChEMBL document CHEMBL4888484, “Replenishing the malaria drug discovery pipeline: Screening and hit evaluation of the MMV Hit Generation Library 1 (HGL1) against asexual blood stage Plasmodium falciparum ,using a nano luciferase reporter read-out” (2022).
